This passage reports activation results from PubChem BioAssay AID1645887 (National Center for Advancing Translational Sciences (NCATS), 2021).

Several values for one entry are separate records, joined by “and”; a condition that tells them apart may be missing. Equal values may be shown once. Screen size: about 16,000 compounds; about 40 (0.2%) were called active. Another 1% or so got no clear call; they are omitted. Calls come from the whole dose curve; as a rule, active = well fitted activation curve with a large enough effect; inconclusive = small, poorly fitted or top-dose-only effect, or another doubt; inactive = no such curve, though single readings can be large or run the other way. Some of the results follow.
% is set by controls: 0 for no effect and ±100 for the full control effect.

Sequence of UniProt Q8WZA2 (Q8WZA2 whole entry, looked up): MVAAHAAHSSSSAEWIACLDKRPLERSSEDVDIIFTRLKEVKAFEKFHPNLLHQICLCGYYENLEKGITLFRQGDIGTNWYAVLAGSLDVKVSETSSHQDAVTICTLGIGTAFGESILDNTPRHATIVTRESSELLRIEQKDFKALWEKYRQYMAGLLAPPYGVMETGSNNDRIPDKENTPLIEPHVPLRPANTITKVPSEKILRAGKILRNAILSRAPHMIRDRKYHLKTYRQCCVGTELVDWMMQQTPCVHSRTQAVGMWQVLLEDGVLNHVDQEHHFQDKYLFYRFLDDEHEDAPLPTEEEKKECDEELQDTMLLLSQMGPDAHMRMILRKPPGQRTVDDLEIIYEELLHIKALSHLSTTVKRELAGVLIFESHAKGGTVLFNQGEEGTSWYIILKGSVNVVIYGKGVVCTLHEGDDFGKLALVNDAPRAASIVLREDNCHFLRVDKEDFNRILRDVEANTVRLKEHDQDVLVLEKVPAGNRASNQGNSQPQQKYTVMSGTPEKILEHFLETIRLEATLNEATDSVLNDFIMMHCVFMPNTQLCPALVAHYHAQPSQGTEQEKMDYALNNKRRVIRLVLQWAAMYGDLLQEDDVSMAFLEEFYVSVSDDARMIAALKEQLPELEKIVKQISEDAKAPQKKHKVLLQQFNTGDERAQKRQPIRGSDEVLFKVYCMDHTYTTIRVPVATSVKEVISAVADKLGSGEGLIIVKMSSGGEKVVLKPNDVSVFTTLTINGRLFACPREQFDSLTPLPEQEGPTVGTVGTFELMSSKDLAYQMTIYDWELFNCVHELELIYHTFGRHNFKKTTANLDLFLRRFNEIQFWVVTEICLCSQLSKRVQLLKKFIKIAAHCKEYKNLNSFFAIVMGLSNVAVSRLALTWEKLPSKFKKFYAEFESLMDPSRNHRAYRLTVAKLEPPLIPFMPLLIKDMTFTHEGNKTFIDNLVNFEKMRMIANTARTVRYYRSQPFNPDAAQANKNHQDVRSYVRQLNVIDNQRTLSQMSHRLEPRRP

The target of this assay is Rap guanine nucleotide exchange factor 4 (Homo sapiens) (UniProt Q8WZA2). Put plainly: Validation qHTS for agonist of cAMP-regulated guanine nucleotide exchange factor 4 (EPAC2).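 Note: exchange makes BODIPY-GDP fluorescence drop when released from Rap1B; series mostly up to about 150 µM.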 Particulars: EPAC2 Rap1B BODIPY-GDP exchange, fluorescence; activation: hits give high values. The gist of the method:
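Fluorescent exchange assay: 100 nM EPAC2 with 250 nM RAP1B-BODIPY-GDP and 50 uM GDP; compound added, 5 min at room temperature, then read (ex 480/em 540 nm) every 5 min for 30 min. Normalized to 6.5 mM cAMP agonist control.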
A general note: qHTS replaces the single test concentration by a dilution series.
With `Cn1c(=O)[nH]c2ncn(C)c2c1=O`, the activation is inactive: 2.58% and inactive: -4.56% and inactive: -18.7%.
In the case of `Cc1nc2cncnc2n(C2CC2)c1=O` it was inactive: -14.4%.
In the case of `COc1ccc2ccccc2c1CN1CCCC(n2cc(C(=O)N3CCCC3)nn2)C1` (stereo not given) it was inactive: -9.86%; in that of `COc1ccccc1CN1CC[C@@]2(CCCN(C(=O)c3cccn3C)C2)C1`, inactive: -10.6%.
In the case of `CCOc1ccc(NS(=O)(=O)c2ccc(N)cc2)nn1` it was inactive: -12%; in that of `N[C@@H](C(=O)O)c1ccc(C(=O)O)c(O)c1`, inactive: -1.93%; in that of `C=CCSSSCC=C`, inactive: -32.3%.
With `O=C(O)[C@@H]1CN[C@@H](C(=O)O)C1`, the activation is inactive: 11.8%.
In the case of `OCCN1CCN(Cc2ccc3c(c2)CN(Cc2cccn2-c2ccccn2)CCO3)CC1` it was inactive: -10.3%; in that of `Cc1cc(C(C)(C)C)c(O)c(C(C)(C)C)c1`, inactive: -35.9% and inactive: -8.06%; in that of `COc1ccc(-c2cc(=S)ss2)cc1`, inactive: -1.8%.
As to `COc1ccc(S[C@@H](CCN2CC[C@H](NC(=O)OCc3ccccc3)CCC2=O)c2ccccc2)cc1`, the activation was inactive: -29.5%.
In the case of `CN(C)c1ccc(-c2cncnc2Nc2ccc(F)cc2)cc1` it was inactive: -3.86%; in that of `COc1ccc2c(c1)OCC(Cc1ccc(OC)c(O)c1)C2=O` (stereo not given), inactive: 0.531%.
In the case of `CN(CCO)C(=O)c1cn(C2CCN(Cc3c(F)cccc3Cl)CC2)nn1` it was inactive: -17.5%.
In the case of `CC(C)=CCC1=C(O)[C@](O)(CC=C(C)C)C(=O)C(C(=O)CC(C)C)=C1O` it was inactive: -18.5%.
For the compound `CC(C)O`, the activation was inactive: -6.26%.
With `CCCS(=O)(=O)NCc1c(C)ncc2c1CCN(C(=O)/C=C/c1ccc(F)cc1F)C2`, the activation was inactive: -3.2%.
In the case of `O=S(=O)(c1ccccc1)N1CCC2(CCCN(Cc3nccs3)C2)CC1` it was inactive: -1.34%; in that of `COC(=O)[C@@H]1CCCN1Cc1ccc2c(c1)CN(Cc1coc3ccc(C)cc3c1=O)CCO2`, inactive: -19.1%; in that of `O=C1CS(=O)(=O)N(Cc2cccc(F)c2)c2ccc(Br)cc21`, inactive: -8.76%.
Consider `CCCn1c(=O)[nH]c(=O)c2[nH]cnc21`, for which the activation is inactive: 8.06% and inactive: -15.5%.
In the case of `COC(=O)Nc1nc2ccc(Sc3ccccc3)cc2[nH]1` it was inactive: -11.3% and inactive: -30.3%; in that of `C/C=C(\C)C(=O)NCCN1Cc2ccccc2OC(c2ccccc2OC)C1` (stereo not given), inactive: -0.335%; in that of `N#Cc1ccc(CN2CC3(CCN(C(=O)c4cccc(F)c4)CC3)C2)cc1`, inactive: -6.9%.
In the case of `COc1ccc(NC(=O)N2CCC3(CC2)CCN(S(C)(=O)=O)CC3)cc1` it was inactive: -20.9%; in that of `CC(=O)c1ccc(F)c(-c2cc(C)cc3c2OC(CNC(=O)C[C@@H]2C[C@@H](C)NC(=S)N2)C3)c1` (stereo not given in full), inactive: -13.4%.
In the case of `CCC1(C2CCN(C(=O)c3ccc4ccccc4c3)CC2)NC(=O)N(CCc2scnc2C)C1=O` (stereo not given) it was inactive: -7.84%.
On to `CN1c2cc(O)c(N=NC(N)=O)cc2CC1S(=O)(=O)O` (stereo not given), for which the activation was inactive: -7.36%.
In the case of `COc1cc(=O)n(C)c2c(OCC3OC(C)(C)OC3(C)C)cccc12` (stereo not given) it was inactive: -21.3%; in that of `C[N+](C)(C)CC=O`, inactive: -11%; in that of `N#Cc1cccc(-c2cc(NCc3cccnc3)ncn2)c1`, inactive: 5.48%.
In the case of `O=c1c(-c2ccc(Cl)cc2)nc2cncnc2n1Cc1ccc(F)cc1` it was inactive: -5.86%.
In the case of `O=C(Nc1ccc(Cl)cc1)Nc1ccc(Cl)c(C(F)(F)F)c1` it was inactive: 22.9%.
Take `O=c1cc(-c2ccc(O)cc2O)oc2ccccc12`: the activation is inactive: -6.9%.
In the case of `COc1ccc(F)c(CN2CCC3(CCC(CNC(=O)c4ccn(C)n4)O3)CC2)c1` (stereo not given) it was inactive: -1.52%.
In the case of `O=C(CN1Cc2ccccc2OC(c2ccsc2)C1)N1CCC(c2nc3ccccc3[nH]2)CC1` (stereo not given) it was inactive: 6.94%.
In the case of `OC[C@H]1O[C@@H](n2cnc3c(NC4CCCC4)ncnc32)[C@H](O)[C@@H]1O` it was inactive: 4.21% and inactive: -19.4%.
For `COc1ccc(/C=C/C(=O)c2ccc(O)cc2O)cc1`, the activation is inactive: -10.7%.
In the case of `C1CCC(C(CC2CCCCN2)C2CCCCC2)CC1` (stereo not given) it was inactive: -39.2%.
In the case of `COCCn1c(=O)c(-c2ccc(OC)cc2)nc2cnc(N3CCNCC3)nc21` it was inactive: -5.32%; in that of `CC(C)N(c1ccc(C=O)cc1)C(C)C`, inactive: -3.34%.
Take `C[C@@H]1CN(Cc2ccc3c(c2)CN(Cc2cn[nH]c2-c2ccccc2)CCO3)C[C@H](C)O1`: the activation is inactive: -5.28%.
In the case of `FC(F)(F)c1ccccc1-c1cncnc1NCCN1CCOCC1` it was inactive: -18.8%.
In the case of `COc1ccc(OC)c(CN2C[C@H](Sc3ccc(F)cc3)C[C@H]2C(=O)N(C)C)c1` it was inactive: -1.63%; in that of `CC(=O)NC(=O)c1ccccc1O`, inactive: -5.54%; in that of `COc1c2c(cc3c1C(c1c(O)c4ccccc4oc1=O)N(C)CC3)OCO2` (stereo not given), inactive: 7.81%.
In the case of `CC(=O)[C@@]1(O)CC[C@H]2[C@@H]3C[C@H](C)C4=CC(=O)C=C[C@]4(C)[C@@]3(F)[C@@H](O)C[C@@]21C` it was inactive: -13.1%; in that of `CC(=O)Nc1ccc(OC(=O)c2ccccc2OC(C)=O)cc1`, inactive: -5.36%; in that of `COc1cccc(-c2cc3c(c(OC)c2)OCCN(Cc2cccn2-c2ccccn2)C3)c1`, inactive: -0.0456%.
`c1ccc2sc(SN3CCOCC3)nc2c1`: the activation is inactive: 19.1%.
In the case of `CCc1nc(N)nc(N)c1-c1ccc(Cl)cc1` it was inactive: -10.4% and inactive: 1.6%; in that of `N#Cc1cccc(-c2cc(-n3ccnc3)ncn2)c1`, inactive: -15.1%; in that of `COC(=O)CCCOc1ccc(Cl)cc1Cl`, inactive: -0.799%.
In the case of `O=C(c1cccc(F)c1)N1CCC2(CCCN(c3ccccc3)C2)CC1` it was inactive: -8.63%; in that of `Cc1ncc2c(c1CNC(=O)c1ccc3c(c1)OCO3)CCN(C(=O)c1cc3ccccc3n1C)C2`, inactive: -7.38%.
Regarding `O=C1C=C(O)c2ccccc2C1=O`, the activation is inactive: -13.2% and inactive: -14%.
Turning to `CC1=C2C(=CO[C@H](C)[C@H]2C)C(=O)C(C(=O)O)=C1O`, the activation is inactive: -14.1%.
In the case of `CC(C)NS(=O)(=O)c1cc(C(F)(F)F)ccc1/C=C/C(=O)O` it was inactive: -26.4%; in that of `CC(=O)C[C@H]1c2ccccc2S(=O)(=O)N1C1CCCC1`, inactive: -33.2%; in that of `COCCNc1ncnc2ccc(-c3ccc(C(=O)N(C)C)cc3)cc12`, inactive: 0.716%.
Consider `O=C(NC1CC1)[C@@H]1C[C@@H](Sc2nc3ccccc3[nH]2)CN1CC1CCCCC1`, for which the activation was inactive: -7.95%.
For the compound `CCNc1ncc2nc(-c3ccc(OC)cc3)c(=O)n(Cc3cccs3)c2n1`, the activation was inactive: 12.5%.
In the case of `CC(C)NCC(O)COc1ccc(CCOCC2CC2)cc1` (stereo not given) it was inactive: -12.8% and inactive: -10.4%; in that of `CCOC(=O)N1CCN(/[N+]([O-])=N/Oc2ccc([N+](=O)[O-])cc2[N+](=O)[O-])CC1`, inactive: -27.3%.
For the compound `COc1cc(C(=O)NCc2ccc(OCCN(C)C)cc2)cc(OC)c1OC`, the activation is inactive: -1.68% and inactive: -0.128%.
In the case of `CCCN1CCCC[C@H]1C(=O)Nc1c(C)cccc1C` it was inactive: -9.04%.
In the case of `COc1ccccc1CNc1ccnc(-c2ccccc2C(F)(F)F)n1` it was inactive: -4.86%; in that of `CSc1ncccc1C(=O)NCCN1Cc2ccccc2OC(c2ccccc2F)C1` (stereo not given), inactive: 9.49%; in that of `COc1cc(NCc2ccc3nc(N)nc(N)c3c2C)cc(OC)c1OC`, inactive: 13.5%.
As to `COc1cccc(-c2ccc3ncnc(NCc4ccccc4OC)c3c2)c1`, the activation is inactive: -9.54%.
In the case of `Cc1ccc(S(=O)(=O)N[C@@H](Cc2ccccc2)C(=O)CCl)cc1` it was inactive: -7.27%.
In the case of `O=C(O)CCNC(=O)c1ccc(N=Nc2ccc(O)c(C(=O)O)c2)cc1` it was inactive: -22.5%.
In the case of `COc1ccccc1-c1nc(NCc2cccnc2)c2ccccc2n1` it was inactive: 0.873%; in that of `O=C1[C@H]2[C@H](C=CC[C@H]2C(=O)N2CCOCC2)CCN1Cc1ccc(Cl)c(Cl)c1`, inactive: -5.62%; in that of `COc1ccc2c(c1)OC/C(=C/c1ccc(OC)c(OC)c1)C2=O`, inactive: -5.31%.
For the compound `O=C(O)CCC(=O)OC[C@@H](NC(=O)C(Cl)Cl)C(O)c1ccc([N+](=O)[O-])cc1` (stereo not given in full), the activation is inactive: -9.09%.
In the case of `COc1cccc2oc(-c3ccccc3)cc(=O)c12` it was inactive: 1.44%; in that of `COCc1c(C(=O)N2CCN(C3CCCC3)CC2)cnn1-c1nccc(-c2cc(C)sc2C)n1`, inactive: 3.83%; in that of `O=CN1CCc2c([nH]c3ccccc23)C1c1cccc2cccnc12` (stereo not given), inactive: -5.23%.
In the case of `NC1CCN(c2cccc(Cl)n2)CC1` it was inactive: -21.3% and inactive: 1.96% and inactive: -19.9%; in that of `CC1C(=O)N(C)C(=O)c2nc[nH]c21` (stereo not given), inactive: -3.49%.
As to `CCSc1nnc(C(C)NS(=O)(=O)c2cccc(Cl)c2C)n1C` (stereo not given), the activation is inactive: -7.43%.
On to `CCCCCCCCCCCCC/C=C/[C@@H](O)[C@H](CO)NCCCCCCCC`, for which the activation was inactive: -10.4%.
In the case of `CC1(C)C=Cc2c(cc3occ(-c4ccc5c(c4)OCO5)c(=O)c3c2O)O1` it was inactive: 0.172%; in that of `O=c1cc(CO)occ1O`, inactive: -22.1% and inactive: -3.04% and inactive: 3.58%.
With `CS(=O)(=O)Nc1cccc(-c2cncnc2Nc2ccccc2)c1`, the activation was inactive: 4.36%.
In the case of `COc1cccc(CN2CCC(n3cc(C(=O)NC4CCCC4)nn3)CC2)c1O` it was inactive: -16.6%; in that of `COc1ccccc1CNc1nc(-c2ccc3c(c2)OCO3)nc2ccccc12`, inactive: 10.1%; in that of `CCNc1ncc2ncc(=O)n(Cc3cccs3)c2n1`, inactive: 6.24%.
